In a collection of fitness landscapes (doi:10.1016/j.celrep.2020.107928):
Whole data set: some 81,000 sequences, median “one-hybrid fitness for binding NBS DNA” near -0.1, cut for the highest 2% near 0.36. The list shows a part of the results.

B1: Caulobacter ParB omega fusion; a variant is named by its letters at X, in order, B8GW30 (parent)
chain: MESVVVGEPGMSEGRRGLGRGLSALLGEVDAAPAQAPGEQLGGSREAPIEILQRNPDQPRRTFREEDLEDLSNSIREKGVLQPILVRPSPDTAGEYQIVAGERAWRAAQRAGLKTVPIMVRELDDLAVLEIGIIENVQRADLNVLEEALSYKVLMEKFERTQENIAQTIGKSXSHVANXMRLLXLPDEVQSYLVSGELTAXHARAIAAAADPVALAKQIIEGGLSVRETEALARKAPNLSAGKSKGGRPPRVKDTDTQALESDLSSVLGLDVSIDHRGSTGTLTITYATLEQLDDLCNRLTRGI

Variants of: B1
Test: one-hybrid fitness for binding NBS DNA (the Noc-binding site; scaled: cognate 1, non-cognate 0); higher = stronger binding
Conditions: with NBS DNA site
How it was run: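 On M9-minus-histidine containing 0.1 mM IPTG and 5 mM 3-AT, E. coli USO cells with a HIS3 reporter, site 19 bp from the promoter, grew 48 hours at 37°C to select Caulobacter ParB libraries randomised at four specificity codons. Plasmids from before and after were Illumina-sequenced, with three replicate libraries pooled and variants under 10 reads left out. Fitness is the log change in variant-to-wild-type read ratio, rescaled against cognate and non-cognate.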

Row | Variant | one-hybrid fitness for binding NBS DNA
1 | WRMN | ≤ 0.2
2 | LEWS | ≤ 0.2
3 | KLKI | ≤ 0.2
4 | RAWD | ≤ 0.2
5 | RGWW | ≤ 0.2
6 | CQPI | ≤ 0.2
7 | WCQS | ≤ 0.2
8 | QWGI | ≤ 0.2
9 | ATNR | ≤ 0.2
10 | QPTP | ≤ 0.2
11 | VCRN | ≤ 0.2
12 | HNHG | ≤ 0.2
13 | VSFG | ≤ 0.2
14 | TAAA | ≤ 0.2
15 | IIYR | ≤ 0.2
16 | PWPG | ≤ 0.2
17 | WFTL | ≤ 0.2
18 | RNNM | ≤ 0.2
19 | VAAQ | ≤ 0.2
20 | QPPR | ≤ 0.2
21 | FNKG | ≤ 0.2
22 | YARY | ≤ 0.2
23 | TEKM | ≤ 0.2
24 | VELF | ≤ 0.2

Row | Variant | one-hybrid fitness for binding NBS DNA
25 | VKMG | ≤ 0.2
26 | NHVD | ≤ 0.2
27 | DLLR | ≤ 0.2
28 | KWDD | ≤ 0.2
29 | VGGS | ≤ 0.2
30 | LLLC | ≤ 0.2
31 | MQKG | ≤ 0.2
32 | QFES | ≤ 0.2
33 | NMYC | ≤ 0.2
34 | GINW | ≤ 0.2
35 | DYTF | ≤ 0.2
36 | DYQG | ≤ 0.2
37 | MLFS | ≤ 0.2
38 | WKCG | ≤ 0.2
39 | LKYE | ≤ 0.2
40 | VSGT | ≤ 0.2
41 | DAKR | ≤ 0.2
42 | AHGR | ≤ 0.2
43 | DTVV | ≤ 0.2
44 | RPIW | ≤ 0.2
45 | DLKY | ≤ 0.2
46 | EPKW | ≤ 0.2
47 | HFSY | ≤ 0.2
48 | IKCG | ≤ 0.2

Row | Variant | one-hybrid fitness for binding NBS DNA
49 | DSGV | ≤ 0.2
50 | CAAC | ≤ 0.2
51 | TATG | ≤ 0.2
52 | PRKI | ≤ 0.2
53 | KLCM | ≤ 0.2
54 | RIDD | ≤ 0.2
55 | TTSY | ≤ 0.2
56 | HELS | ≤ 0.2
57 | RCIM | ≤ 0.2
58 | FFLS | ≤ 0.2
59 | ALTT | ≤ 0.2
60 | LGSV | ≤ 0.2
61 | GLDA | ≤ 0.2
62 | VERV | ≤ 0.2
63 | YKSS | ≤ 0.2
64 | LMTC | ≤ 0.2
65 | EYWR | ≤ 0.2
66 | PCHC | ≤ 0.2
67 | GGGL | ≤ 0.2
68 | DYIK | ≤ 0.2
69 | LNGC | ≤ 0.2
70 | TRTI | ≤ 0.2
71 | SMNN | ≤ 0.2
72 | LTTQ | ≤ 0.2

Row | Variant | one-hybrid fitness for binding NBS DNA
73 | APVH | ≤ 0.2
74 | QLYT | 0.355
75 | RNSY | ≤ 0.2
76 | KGDM | ≤ 0.2
77 | TRDA | ≤ 0.2
78 | RVKQ | 0.232
79 | VENS | ≤ 0.2
80 | HNPW | ≤ 0.2
81 | PNRL | ≤ 0.2
82 | KTWS | ≤ 0.2
83 | HGPC | ≤ 0.2
84 | AYMF | ≤ 0.2
85 | QHGD | ≤ 0.2
86 | HQSF | ≤ 0.2
87 | CSCT | ≤ 0.2
88 | AFSH | ≤ 0.2
89 | DTKY | ≤ 0.2
90 | PLMF | ≤ 0.2
91 | PPDY | ≤ 0.2
92 | MIPT | ≤ 0.2
93 | QRFT | 0.723
94 | VLPM | ≤ 0.2
95 | VSLG | ≤ 0.2
96 | QDAA | ≤ 0.2

Row | Variant | one-hybrid fitness for binding NBS DNA
97 | QQEI | ≤ 0.2
98 | NEHC | ≤ 0.2
99 | PSCM | ≤ 0.2
100 | WKFS | ≤ 0.2
101 | GFMG | ≤ 0.2
102 | QVDH | ≤ 0.2
103 | WHTG | ≤ 0.2
104 | TECS | ≤ 0.2
105 | RGSI | ≤ 0.2
106 | HNEW | ≤ 0.2
107 | GTTR | ≤ 0.2
108 | PDDT | ≤ 0.2
109 | AAHK | ≤ 0.2
110 | KNYY | ≤ 0.2
111 | LEHS | ≤ 0.2
112 | HMLD | ≤ 0.2
113 | KNIS | ≤ 0.2
114 | AMPS | ≤ 0.2
115 | SDHT | ≤ 0.2
116 | YYMS | ≤ 0.2
117 | TKFP | ≤ 0.2
118 | TTGV | ≤ 0.2
119 | TQQC | ≤ 0.2
120 | WDPG | ≤ 0.2

Row | Variant | one-hybrid fitness for binding NBS DNA
121 | RYFP | ≤ 0.2
122 | KIDC | ≤ 0.2
123 | RLRI | ≤ 0.2
124 | QHHH | 0.214
125 | TLNI | ≤ 0.2
126 | VTRI | ≤ 0.2
127 | VMYS | ≤ 0.2
128 | QYHP | ≤ 0.2
129 | PWNL | ≤ 0.2
130 | RKPK | ≤ 0.2
131 | CPNV | ≤ 0.2
132 | HPIT | ≤ 0.2
133 | NEAF | ≤ 0.2
134 | RLTP | ≤ 0.2
135 | AEPW | ≤ 0.2
136 | AHAL | ≤ 0.2
137 | KLER | ≤ 0.2
138 | LIFG | ≤ 0.2
139 | PCGV | ≤ 0.2
140 | VFGR | ≤ 0.2
141 | SIIE | ≤ 0.2
142 | RVYR | 0.359
143 | QKNW | ≤ 0.2
144 | DARR | ≤ 0.2

Row | Variant | one-hybrid fitness for binding NBS DNA
145 | WSVR | ≤ 0.2
146 | PSRQ | ≤ 0.2
147 | HMNG | ≤ 0.2
148 | MTSG | ≤ 0.2
149 | SKCC | ≤ 0.2
150 | GEAN | ≤ 0.2
151 | VTDT | ≤ 0.2
152 | DSFC | ≤ 0.2
153 | IWTG | ≤ 0.2
154 | QSRG | 0.319
155 | GWHS | ≤ 0.2
156 | DPQR | ≤ 0.2
157 | WLKW | ≤ 0.2
158 | PFNK | ≤ 0.2
159 | HSRC | ≤ 0.2
160 | FTRY | ≤ 0.2
161 | LGMG | ≤ 0.2
162 | RHPC | ≤ 0.2
163 | RNEY | ≤ 0.2
164 | VRHM | ≤ 0.2
165 | QSCY | ≤ 0.2
166 | KTSW | ≤ 0.2
167 | DEWR | ≤ 0.2
168 | YSAC | ≤ 0.2

Row | Variant | one-hybrid fitness for binding NBS DNA
169 | NREV | ≤ 0.2
170 | RQMN | ≤ 0.2
171 | PCHM | ≤ 0.2
172 | MFHT | ≤ 0.2
173 | HLQT | ≤ 0.2
174 | AKYR | ≤ 0.2
175 | SMAP | ≤ 0.2
176 | GRAI | ≤ 0.2
177 | TPSF | ≤ 0.2
178 | IGYE | ≤ 0.2
179 | MWSS | ≤ 0.2
180 | CFAA | ≤ 0.2
181 | EHQD | ≤ 0.2
182 | YPMC | ≤ 0.2
183 | NDAS | ≤ 0.2
184 | RPKA | ≤ 0.2
185 | VMSS | ≤ 0.2
186 | KWRV | ≤ 0.2
187 | SKAG | ≤ 0.2
188 | LPDK | ≤ 0.2
189 | HDQY | ≤ 0.2
190 | NTQT | ≤ 0.2
191 | AVSQ | ≤ 0.2
192 | PQSP | ≤ 0.2

Row | Variant | one-hybrid fitness for binding NBS DNA
193 | SVRT | ≤ 0.2
194 | QMYK | ≤ 0.2
195 | ITCC | ≤ 0.2
196 | CYHL | ≤ 0.2
197 | VCRT | ≤ 0.2
198 | YWNS | ≤ 0.2
199 | GITR | ≤ 0.2
200 | CRNA | ≤ 0.2
201 | EIAA | ≤ 0.2
202 | FMQR | ≤ 0.2
203 | WLYA | ≤ 0.2
204 | SKTH | ≤ 0.2
205 | TWMG | ≤ 0.2
206 | SWQL | ≤ 0.2
207 | WCAL | ≤ 0.2
208 | SDSG | ≤ 0.2
209 | RRDM | ≤ 0.2
210 | NRNK | ≤ 0.2
211 | QTVR | 0.558
212 | RYAA | ≤ 0.2
213 | NFSS | ≤ 0.2
214 | EFAG | ≤ 0.2
215 | WWQF | ≤ 0.2
216 | DRRC | ≤ 0.2

Row | Variant | one-hybrid fitness for binding NBS DNA
217 | IETR | ≤ 0.2
218 | RYRV | ≤ 0.2
219 | LYLT | ≤ 0.2
220 | LSTS | ≤ 0.2
221 | VTLI | ≤ 0.2
222 | VINL | ≤ 0.2
223 | PRRY | ≤ 0.2
224 | NLSS | ≤ 0.2
225 | RTMG | ≤ 0.2
226 | HCYC | ≤ 0.2
227 | TKDF | ≤ 0.2
228 | TASH | ≤ 0.2
229 | AAYY | ≤ 0.2
230 | QAQQ | ≤ 0.2
231 | QHNA | 0.294
232 | DNTV | ≤ 0.2
233 | ATKS | ≤ 0.2
234 | QKQT | 0.578
235 | PVEV | ≤ 0.2
236 | NWHW | ≤ 0.2
237 | GVPH | ≤ 0.2
238 | FSDD | ≤ 0.2
239 | PTVA | ≤ 0.2
240 | ENRN | ≤ 0.2

Row | Variant | one-hybrid fitness for binding NBS DNA
241 | NGKT | ≤ 0.2
242 | TMNE | ≤ 0.2
243 | RHSY | ≤ 0.2
244 | VYQY | ≤ 0.2
245 | IYHM | ≤ 0.2
246 | WIKG | ≤ 0.2
247 | PVYY | ≤ 0.2
248 | PVSS | ≤ 0.2
249 | TCLA | ≤ 0.2
250 | RGKH | ≤ 0.2
251 | GRSR | ≤ 0.2
252 | FRTE | ≤ 0.2
253 | LKGE | ≤ 0.2
254 | DNLC | ≤ 0.2
255 | SGGC | ≤ 0.2
256 | VDGI | ≤ 0.2
257 | NRIM | ≤ 0.2
258 | TMKV | ≤ 0.2
259 | NLTR | ≤ 0.2
260 | TFES | ≤ 0.2
261 | AIAM | ≤ 0.2
262 | PWLV | ≤ 0.2
263 | ESEF | ≤ 0.2
264 | DTED | ≤ 0.2

Row | Variant | one-hybrid fitness for binding NBS DNA
265 | ITFF | ≤ 0.2
266 | REAP | ≤ 0.2
267 | RFIH | ≤ 0.2
268 | MIVC | ≤ 0.2
269 | HGQR | ≤ 0.2
270 | QSGH | ≤ 0.2
271 | YVYR | ≤ 0.2
272 | GDKY | ≤ 0.2
273 | RCYI | ≤ 0.2
274 | DNML | ≤ 0.2
275 | VHNT | ≤ 0.2
276 | YEVI | ≤ 0.2
277 | AWAS | ≤ 0.2
278 | SGGE | ≤ 0.2
279 | NTCT | ≤ 0.2
280 | PAYE | ≤ 0.2
281 | QCGG | ≤ 0.2
282 | EAST | ≤ 0.2
283 | YMNR | ≤ 0.2
284 | NEIW | ≤ 0.2
285 | STYV | ≤ 0.2
286 | QMDL | ≤ 0.2
287 | QEPR | 0.302
288 | QDES | ≤ 0.2

Row | Variant | one-hybrid fitness for binding NBS DNA
289 | MFNT | ≤ 0.2
290 | GVTW | ≤ 0.2
291 | AEMV | ≤ 0.2
292 | STGG | ≤ 0.2
293 | YLAA | ≤ 0.2
294 | YWLL | ≤ 0.2
295 | RCHA | 0.307
296 | YFLC | ≤ 0.2
297 | HRAS | ≤ 0.2
298 | KGSF | ≤ 0.2
299 | DKSV | ≤ 0.2
300 | FFNR | ≤ 0.2
301 | STAV | ≤ 0.2
302 | DTHM | ≤ 0.2
303 | DTVG | ≤ 0.2
304 | PQLT | ≤ 0.2
305 | RLGV | ≤ 0.2
306 | KIGE | ≤ 0.2
